The values below come from PubChem BioAssay AID485344 (National Center for Advancing Translational Sciences (NCATS), 2010).

Out of some 340,000 compounds screened, about 6,900 (2%) were called active. Cut-off read from the data, not from the text of the source: active = inhibition above about 30%; inactive = below that, where a call was filed. This is a selection; strong and weak results do not stand in their true shares. The source gives no active or inactive call for entries shown without one.

Sequence of UniProt P14416 (P14416 whole entry, looked up): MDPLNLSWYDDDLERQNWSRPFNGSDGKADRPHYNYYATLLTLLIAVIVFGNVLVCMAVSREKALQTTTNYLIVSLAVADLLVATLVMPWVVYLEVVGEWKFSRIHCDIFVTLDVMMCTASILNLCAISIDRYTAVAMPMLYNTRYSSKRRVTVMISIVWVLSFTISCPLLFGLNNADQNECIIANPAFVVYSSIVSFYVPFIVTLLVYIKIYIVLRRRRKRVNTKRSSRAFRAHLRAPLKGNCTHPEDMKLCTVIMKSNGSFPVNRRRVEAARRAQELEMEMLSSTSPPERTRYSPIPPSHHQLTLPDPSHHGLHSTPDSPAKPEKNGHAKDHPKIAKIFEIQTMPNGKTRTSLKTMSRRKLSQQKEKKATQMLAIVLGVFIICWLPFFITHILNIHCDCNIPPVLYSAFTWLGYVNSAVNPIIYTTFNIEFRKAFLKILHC

This test addresses D(2) dopamine receptor (Homo sapiens) (UniProt P14416). The experiment in a line: HTS Assay for Allosteric Antagonists of the Human D2 Dopamine Receptor: Primary Screen for Antagonists. Note: 0% is about no effect. The conditions noted are these: HEK293 TREx D2 cells, calcium flux, dopamine EC80; at 10 µM; stronger effect = higher value. An outline of the steps:
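HEK293 T-REx D2 cells, tet-induced, calcium dye no-wash. Cpd pintool add, 180 s kinetic, then EC80 DA, 180 s kinetic. Ca flux read.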
For orientation: Calcium assays in cells follow changes in intracellular calcium, usually with a dye or a luminescent sensor.
A word on the inhibition: it is the relative decrease from the control value, in per cent. As to `CCOC(=O)c1ccc(NS(=O)(=O)c2c(C)[nH]c(C)c2C(=O)N2CCCCC2)cc1`, the inhibition was active: 69.3%. The same measure for `CN(C)S(=O)(=O)c1ccc2c(c1)N(CC(=O)N1CCN(c3cccc(Cl)c3)CC1)CCS2`: -20.8%; for `Cc1ccc(-c2nc3c(cnn3-c3ccccc3)c(=O)n2-c2cccc(Cl)c2)cc1`: -3.16%. Next, `COc1cc(OC)c(N(C)C(=O)C2CCCN(c3ncnc4c3nc3n4CCCCC3)C2)cc1Cl` (centres undefined): 1.27%; `COc1cc(NC(=O)Nc2nnc(N3CCCCCC3)s2)cc(OC)c1`: -2.76%; `CC1CCCN(Cc2c(O)ccc3c(=O)c(Oc4ccc(C(C)(C)C)cc4)c(C(F)(F)F)oc23)C1` (centres undefined): 0.999%.

As to `CNc1ccc2c3c(cccc13)C(=O)N(C)C2=O`, the inhibition was active: 71.9%. For the molecule `COc1cc(/C=C/c2nc3cc(Cl)ccc3c(=O)n2-c2cccc(C(F)(F)F)c2)cc(OC)c1OC`, the inhibition was -0.758%.

In the case of `COc1ccc(Cn2c(SCC(=O)Nc3ccc(OC)cc3)nc3ccccc32)cc1`, the inhibition turned out to be 12.9%. Next, `O=C(COCc1cc(-c2ccco2)on1)Nc1cccc(O)c1`: 15.5%. The same measure for `Cc1ccc(-c2nc(SCC(=O)N3CCc4ccccc43)c3c(=O)n(C)c(=O)n(C)c3n2)cc1`: -27.9%. The same measure for `Cc1ccc(N2CCN(c3c(CN4CCCC4)c(=O)oc4ccccc34)CC2)c(C)c1`: 23%. As to `COCCCNC(=O)c1c(NC(=O)c2cc(=O)c3ccccc3o2)sc2c1CCCC2`, the inhibition came out at 0.735%. Next, `O=C(NCc1ccccc1)c1ccc2c(c1)N(Cc1cccc(Cl)c1)C(=O)c1ccccc1S2(=O)=O`: -10.5%; `Cc1ccc(S(=O)(=O)n2nc(C)c(S(=O)(=O)N3CCC(C)CC3)c2C)cc1`: 6.23%. Next, `Cc1ccccc1CN1C(=O)c2ccccc2Sc2ccc(C(=O)OCc3ccco3)cc21`: -6.77%; `Cc1ccc2nc(-c3ccc(Cl)c(NC(=O)c4cccc([N+](=O)[O-])c4C)c3)oc2c1`: -0.042%; `CCn1ccc2cc(S(=O)(=O)N3CCC(C(=O)NCc4ccc(OC)cc4)CC3)ccc21`: -8.21%.

Turning to `CCOC(=O)C1CCC(CN(Cc2c(Cl)cccc2Cl)S(=O)(=O)c2ccc(Cl)cc2)CC1` (centres undefined), the inhibition amounted to 17.2%. Turning to `COc1ccc(NC(=O)C2CCN(c3nc4ccccc4nc3C(F)(F)F)CC2)cc1`, the inhibition is -8.62%. Next, `COc1ccc(-n2nc(C(=O)NCCc3ccc(OC)c(OC)c3)c3c4ccccc4n(C)c3c2=O)cc1Cl`: 4.25%; `Cc1oc(-c2ccc(C(=O)NCCc3ccc(Cl)cc3)cc2)nc1CSc1ccccc1`: -6.4%. For `COc1ccc(-c2cn3nc(N4CCC(C(=O)Nc5ccc(Cl)cc5C)CC4)sc3n2)cc1`, the inhibition came out at 5.08%. The same measure for `O=C(Cn1cc(SCc2ccccc2)c2ccccc21)N1CCCCCC1`: 3.79%; for `Cc1nnc(NC(=O)CSc2nnc3c(n2)[nH]c2ccccc23)s1`: 9.91%. The same measure for `Cc1nn(CCCC(=O)NCc2cccc(Cl)c2)c(=O)c2c1sc1ccccc12`: 9.43%; for `Cc1cccc(N2CCN(CCCNC(=O)c3sc4ncccc4c3-n3cccc3)CC2C)c1` (centres undefined): 14.3%. Turning to `CC(=O)c1ccc(S(=O)(=O)N2CCN(C(=O)c3ccc(-n4nc(C)c(Cl)c4C)cc3)CC2)cc1`, the inhibition was active: 30.6%. Next, `Cc1ccc(F)cc1NC(=O)c1ccc(Cn2nc(N3CCN(c4ccccc4)CC3)ccc2=O)o1`: 2.43%. Turning to `O=c1n(Cc2ccc(F)cc2)nc2n1-c1cc(Cl)ccc1OC2`, the inhibition was -11.9%.

For the molecule `CCOC(=O)C1CCN(C(=O)Cn2ncc3c4ccccc4n(Cc4ccccc4F)c3c2=O)CC1`, the inhibition was -0.0786%. Next, `CCN(C(=O)c1cccn(Cc2ccccc2C)c1=O)c1ccccc1`: -3.12%.

`Cc1ccc(NC(=O)CN2C(=O)CCn3nc(-c4cccn4C)cc32)c(Cl)c1`: the inhibition is -5.91%.

Consider `Brc1ccc(CN2CCN(c3ccccn3)CC2)s1`, for which the inhibition is active: 68.8%. `CCOc1ccc(S(=O)(=O)c2cn(C)c3ccccc3c2=O)cc1`: the inhibition is -10.3%. The same measure for `Cc1ccc(CNC(=O)Cn2c(=O)ccc3cc(S(=O)(=O)N4CCCC4)ccc32)cc1`: -4.18%; for `CC(NC(=O)c1c2c(nc3ccccc13)C(=O)N(C1CCCCC1)C2)c1ccccc1` (centres undefined): -0.764%. The same measure for `Cc1ccc(Cc2cnc(NC(=O)C3Cc4ccc(C)cc4C(=O)O3)s2)cc1` (centres undefined): 3.24%; for `CCc1ccc(NC(=O)CN2CCSc3ccc(S(=O)(=O)N4CCCC4)cc32)cc1`: -16.5%; for `COc1ccc(CCNc2nc(-c3ccc(F)cc3)cc(C(F)(F)F)n2)cc1OC`: -8.2%. Next, `COc1ccc(C(CNC(=O)c2cccc([N+](=O)[O-])c2)N2CCOCC2)cc1` (centres undefined): -1.63%; `C/C(=N/NC(=O)CN(c1ccccc1)S(=O)(=O)c1ccccc1)c1ccccc1O`: active: 52.1%. Take `CCC(=O)Nc1ccccc1-c1nc2ccccc2n(C(C)C(=O)Nc2cccc(Cl)c2C)c1=O` (centres undefined): the inhibition amounted to 13.6%. Next, `COc1cc(NC(=O)CNC(=O)Cn2ccc3ccccc3c2=O)cc(OC)c1OC`: 11.1%; `CC(C)c1ccc(Nc2ncnc3c2nc2n3CCCC2)cc1`: -1.57%. The same measure for `COc1ccc(-c2cc(C(=O)NCc3ccc(F)cc3)no2)cc1`: -8.62%; for `CC(=O)c1ccc(N2CCN(c3nc4c(S(=O)(=O)c5ccc(C)c(C)c5)nnn4c4ccc(Cl)cc34)CC2)cc1`: 5.79%. The same measure for `Cc1cc(C)cc(-n2ccnc2SCC(=O)Nc2ccc(C)cc2C)c1`: -7.12%; for `CCC(=O)N1CCc2cc(Br)cc(S(=O)(=O)CCC(=O)N3CCN(c4ccc(OC)cc4)CC3)c21`: 15.9%; for `CCC(C(=O)Nc1cc(OC)ccc1OC)n1c(=O)c(C(F)(F)F)nc2ccccc21` (centres undefined): 1.72%. For the molecule `O=c1n(Cc2ccc(Cl)cc2)c2ccccc2c2nc(-c3ccccc3)nn12`, the inhibition is -14.9%. Next, `CCc1ccc(NC(=O)Cc2csc(COc3cccc(C)c3)n2)cc1`: 0.819%; `Cc1nc2ccc(S(=O)(=O)NC(C(=O)N3CCN(c4ccc(Cl)cc4)CC3)C(C)C)cc2s1` (centres undefined): 8.88%; `Cc1cc(-c2ccc(C)c(S(=O)(=O)NCCCN3CCCCCC3)c2)on1`: active: 33.7%. Next, `COC(=O)c1ccccc1NC(=O)NCc1ccc2c(c1)OCO2`: active: 34.4%; `CCn1c(=O)cc(SCC(=O)NCCc2cccc(C)c2)c2ccccc21`: -2.74%; `COc1ccc(-c2cc(C(C)=O)c(C)n2CCC(=O)Nc2ccc(C)cc2Cl)cc1`: 18%. On to `COc1cc(C2N=C(N)Nc3nc4ccccc4n32)ccc1OCC(=O)O` (centres undefined), for which the inhibition is -3.58%.

`Cc1cc(C)cc(Nc2nc3ccccc3n3cnnc23)c1`: the inhibition was -12.9%. The same measure for `COCCn1c(C)cc(O)c(C(c2ccc(Cl)cc2)N2CCN(c3ccccc3)CC2)c1=O` (centres undefined): -16.5%. The same measure for `COc1ccc(NC(=O)Nc2cccc(OCc3cc(=O)n4cccc(C)c4n3)c2)c(OC)c1`: 10.2%. As for `CN1C(C(=O)c2ccccc2)=C(NC(=O)c2ccccc2Br)c2ccccc2S1(=O)=O`, the inhibition was -11.6%. Next, `CC(C)c1cc(C(=O)NC(C)c2ccccc2)no1` (centres undefined): 2.14%; `CCN(CC)CCNC(=O)c1ccc(Sc2ccc(Cl)cc2)c(NC(C)=O)c1`: active: 36%; `CCOc1ccc(C(=O)Nc2ccccc2C(=O)OCc2cc(=O)n3nc(C4CC4)sc3n2)cc1`: 12.6%.

Consider `COc1ccc(CCNC(=O)c2cc3c(s2)-c2c(C)cccc2OC3)c(OC)c1`, for which the inhibition came to 3.29%. Next, `Cc1cc(C)cc(NC(=O)Cn2nnc(C(=O)NCc3ccccc3Cl)c2N)c1`: -13%.

In the case of `CCN(Cc1ccccc1)C(=O)c1cc2c(=O)oc3ccc(C)cc3c2s1`, the inhibition is -1.09%.

With `Cc1ccc(-c2nc(S(=O)(=O)c3ccc(C)cc3)c(SCC(=O)Nc3ccc(F)cc3)o2)cc1`, the inhibition is -5.64%. Next, `CCc1ccc(S(=O)(=O)c2nnn3c2nc(Nc2cc(OC)cc(OC)c2)c2cc(Cl)ccc23)cc1`: 1.09%.

For `CN(C)CC(C)(C)CNC(=O)C1CCN(CCCc2ccccc2)CC1`, the inhibition was active: 31.3%. In the case of `COc1ccc(-c2nc3nc(C)cc(N4CCN(c5cccc(C(F)(F)F)c5)CC4)n3n2)cc1`, the inhibition was -6.57%. Next, `COCCCNC(=O)c1ccc(Cn2c(=O)c3ccccc3n(CC(=O)Nc3ccc(C)cc3C)c2=O)cc1`: 4.65%; `Cc1ccc2cc3cc(C(=O)N4CCN(c5ccccc5)CC4)oc3nc2c1`: -20.6%; `Cc1cc(C)cc(NC(=O)C(=O)NCCCN2CCOCC2)c1`: -18%. The same measure for `CCc1nn(CC(=O)NCc2ccccc2Cl)c(=O)c2cc3ccccc3n12`: 5.3%; for `CCOc1ccc(CN(C(=O)c2nc(SC)ncc2Cl)C2CCS(=O)(=O)C2)cc1` (centres undefined): -3.61%. The same measure for `CC1CCCCN1CCCNC(=O)c1ccc2c(c1)sc1nc(-c3ccc(F)cc3)cn12` (centres undefined): -3.99%; for `CCc1ccc(Oc2c(C(F)(F)F)oc3c(CN4CCN(CC)CC4)c(O)ccc3c2=O)cc1`: 12.4%; for `O=C(Nc1nc2ccc(S(=O)(=O)N3CCCC3)cc2s1)c1ccc(F)cc1`: -19.3%. As for `Cc1ccc(OCc2ccoc2C(=O)O)cc1C`, the inhibition was active: 30.2%. Next, `CCOc1ccccc1CNC(=O)c1cn(-c2ccc(OC)cc2)c(=O)c2ccccc12`: 4.86%; `COc1cccc(C2=C(C(C)=O)Sc3nnc(C4CCCCC4)n3N2C(C)=O)c1`: -16.6%. Next, `COc1cccc(CNC(=O)CSc2n[nH]c(-c3ccccc3Cl)n2)c1OC`: 12.9%; `Cc1cccc(NC(=O)CSc2nc(=O)n(Cc3ccco3)c3c2CCC3)c1C`: 17.1%.

Regarding `CCOc1ccc(NC(=O)[C@H]2O[C@@H]3OC(C)(C)O[C@@H]3[C@H]3OC(C)(C)O[C@H]32)cc1`, the inhibition was 5.83%.

Consider `CCC(CC)C(=O)Nc1ccc2nc(SCC(=O)N3CCOCC3)sc2c1`, for which the inhibition was determined as 5.44%.

For `CSc1ccc(CCNC(=O)c2c(C)nn(-c3ccc(F)cc3)c2-n2cccc2)cc1`, the inhibition is -6.13%.

Take `O=C(NCc1ccc(Cl)cc1)C1CCN(S(=O)(=O)c2ccc(F)cc2)CC1`: the inhibition is -15.4%. Next, `CCOC(=O)c1noc2ncn(Cc3ccc([N+](=O)[O-])cc3)c(=O)c12`: -14.6%; `CCC(C)n1c(SCc2ccc(F)cc2Cl)nc2ccsc2c1=O` (centres undefined): -4.68%. Next, `Cc1ccc(CSc2nc3ccc(NC(=O)CC(C)C)cc3s2)cc1`: 2.39%; `COc1ccc(C(=O)NCC(c2ccc(N(C)C)cc2)N2CCOCC2)cc1` (centres undefined): 18.6%; `COc1ccc(Cl)cc1NC(=O)CSc1cc(C)[nH]c(=O)n1`: 4.82%.
